# Reference: the supplement of paper PMC7335073
# Over roughly 4,100 sequences, “relative CpG methylation activity (normalised to average over all NNNCGNNN flanks)” has its median near 0.87; the highest 2% begin near 2.4. Some of the results follow.
# Target: DNMT3A catalytic domain (mouse) (UniProt O88508)
# Assay: relative CpG methylation activity (normalised to average over all NNNCGNNN flanks) (relative (1 = mean)); higher = more methylation of the central CpG
# Settings: system: in vitro, murine catalytic domain; CpG state: hemimethylated substrate pool; residues: 608-908
# Method: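 Deep enzymology: a pool of dsDNA substrates with a central CpG flanked by 10 random nucleotides on each side was methylated by the murine DNMT3A or DNMT3B catalytic domain (0.8 mM SAM, 37 °C, 60 min). Methylation was then read out by hairpin ligation, bisulfite conversion and NGS. Values are the average methylation of each NNNCGNNN context (±3 flanks; the outer flanks are random and averaged over), normalised to the overall mean, so 1 = average activity.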
row,Sequence,relative CpG methylation activity
1,CCCCGTAT,0.744
2,GGTCGTGA,0.352
3,CTACGACT,1.86
4,GTCCGCTG,1.42
5,ATTCGATG,0.385
6,CTCCGGTT,1.61
7,CCGCGGCG,0.896
8,GTACGTAG,1.18
9,CAGCGCAG,0.267
10,GAACGGTA,0.646
11,GCGCGGGG,0.217
12,GATCGATG,0.0725
13,AAACGTCC,1.19
14,TACCGCAG,0.256
15,AGTCGCAT,0.486
16,CACCGCGT,0.896
17,AGCCGTAT,0.461
18,GACCGGCC,1.23
19,CCGCGCAC,1.17
20,GAACGTTA,0.565
21,CCGCGTAG,0.667
22,TAACGCAA,0.653
23,AAACGCAA,0.621
24,ATACGGCC,2.06
25,GGTCGATA,0.458

row,Sequence,relative CpG methylation activity
1,AGCCGATT,0.672
2,GAGCGCCG,0.865
3,TGACGCTC,1.26
4,GTTCGCGT,1.13
5,GATCGCAA,0.458
6,ATGCGTCT,1.97
7,TGGCGTCG,0.758
8,CAACGGCA,1.03
9,GTTCGGCT,1.62
10,GAACGTCC,1.06
11,GATCGCGG,0.192
12,GAACGGAT,0.564
13,CTACGCAA,2.07
14,CTCCGGAC,1.43
15,CGACGGAA,0.813
16,GATCGGCG,0.337
17,TCCCGGGA,0.917
18,CCTCGGCA,0.985
19,TCTCGATA,0.597
20,TAACGAAC,1.14
21,ACACGCTC,2.4
22,AGCCGCAG,0.256
23,GACCGTCG,1.29
24,CTGCGGCG,0.556
25,TCACGGTC,1.6

row,Sequence,relative CpG methylation activity
1,AGGCGTCA,1.07
2,AATCGTCT,0.672
3,GGCCGACC,1.01
4,CCTCGTCA,1.72
5,ACCCGTCG,1.85
6,CAGCGACA,0.56
7,TCCCGATA,1.35
8,GATCGACG,0.376
9,CCACGCTA,1.53
10,TACCGCTG,0.952
11,AACCGGCG,0.692
12,TCTCGCTA,1.4
13,AGTCGTTG,0.441
14,ATACGCGC,1.93
15,TATCGGAT,0.25
16,CTTCGTTG,0.714
17,CGGCGCGT,0.446
18,AGTCGAGG,0.159
19,GAACGAAC,0.841
20,ATCCGGGT,1.44
21,ATACGCGT,1.9
22,GTTCGATC,1.21
23,CACCGTCG,1.24
24,GGACGGAT,0.391
25,TCCCGCCC,1.99

row,Sequence,relative CpG methylation activity
1,TATCGCGA,0.514
2,TTCCGATC,2.29
3,AGCCGTGG,0.321
4,GATCGCAT,0.449
5,GCGCGGAT,0.34
6,TACCGACT,0.963
7,TAGCGGAA,0.375
8,ACTCGGCA,0.904
9,GCTCGTAA,0.912
10,CGCCGCCA,1.25
11,ACCCGAGA,1.13
12,AGGCGATA,0.629
13,AAACGCTA,0.746
14,TCACGGAA,1.39
15,AGCCGCCA,1.02
16,TCACGTGC,1.07
17,AACCGTCT,1.51
18,CTGCGTAG,1.27
19,CTGCGTAT,0.851
20,TGACGAAA,0.589
21,GATCGCGA,0.335
22,TAACGCGA,0.673
23,TGCCGTAC,0.828
24,AAGCGACG,0.311
25,TGACGGGC,0.952

row,Sequence,relative CpG methylation activity
1,TATCGAGC,0.705
2,ATACGCCG,2.33
3,CCCCGTGA,0.598
4,CAACGCGC,1.04
5,ATCCGTCG,2.08
6,GCGCGACT,0.797
7,CAGCGATC,0.819
8,GTCCGGAA,1.51
9,CATCGTGG,0.291
10,TATCGCTA,0.839
11,TCTCGTGC,0.46
12,AAGCGAGA,0.525
13,GGACGACT,0.878
14,GGGCGGAC,0.769
15,CCCCGGTT,0.766
16,CTCCGGGA,0.798
17,TAACGCCG,1.14
18,CACCGTAG,0.625
19,ATACGCTC,2.73
20,TGGCGTCA,1.12
21,ATGCGTCA,1.82
22,TATCGCTC,1.78
23,GTCCGAAC,1.91
24,GTCCGTAC,1.42
25,TGTCGAGC,0.459

row,Sequence,relative CpG methylation activity
1,CTGCGAGA,1.06
2,GTCCGTCT,2.14
3,TTGCGACC,1.46
4,AAGCGGGT,0.567
5,GCACGACC,1.36
6,AGCCGGAC,0.673
7,CCACGCCT,2.24
8,AGACGGCC,1.49
9,CTCCGACT,1.55
10,GGTCGTGC,0.26
11,CTCCGAGG,1.01
12,AACCGATA,0.968
13,TCCCGCGC,0.962
14,ACACGGAA,1.11
15,ACCCGTGG,0.188
16,AGCCGGCT,0.977
17,GGCCGGAG,0.135
18,GACCGCGT,0.574
19,ATCCGTCA,1.95
20,GGGCGTTC,0.545
21,GAACGACA,0.886
22,CCCCGACG,1.16
23,CGACGGCA,0.474
24,TTACGGCT,1.84
25,ACGCGACC,1.24

row,Sequence,relative CpG methylation activity
1,CGTCGAGC,1.06
2,AACCGAGT,0.815
3,ACACGTCG,2.02
4,GCTCGGTG,0.431
5,GACCGAAC,1.61
6,CGACGCGT,0.316
7,AGCCGGGT,0.732
8,GACCGACT,1.21
9,ACGCGTGT,0.221
10,ATTCGCAA,1.09
11,ATACGAAT,1.62
12,TCGCGGCT,0.852
13,GCTCGGAG,0.116
14,TTCCGGCA,1.67
15,GTTCGAGA,0.812
16,TCGCGTAC,0.584
17,TACCGTGG,0.352
18,CGTCGTTA,0.474
19,TGACGAAC,0.947
20,TCTCGTTG,0.455
21,CCACGTCC,1.94
22,GCTCGTCT,1.22
23,TTCCGTCA,2.29
24,CTTCGCTT,1.78
25,CACCGCAA,0.673

row,Sequence,relative CpG methylation activity
1,CGTCGGTG,0.167
2,TCCCGGGG,0.435
3,ACTCGTAA,1.27
4,GCACGTTC,1.11
5,TGGCGCTC,1.43
6,CGGCGGTA,0.278
7,AGACGTTT,0.455
8,TTTCGCCA,1.69
9,CCGCGAGG,0.246
10,GGGCGAGA,0.847
11,ATCCGAAA,1.81
12,GTACGGTA,1.05
13,AACCGAGC,1.56
14,CGGCGAGG,0.323
15,TAACGCGT,0.545
16,GAGCGCCC,1.38
17,GTGCGATA,1.26
18,TGCCGACT,0.738
19,GGGCGAAA,0.847
20,CTACGTTG,1.15
21,ACTCGCCA,1.66
22,ACGCGTTA,0.973
23,TGACGTCG,1.02
24,GCACGTTT,0.988
25,AATCGCAC,0.435

row,Sequence,relative CpG methylation activity
1,GATCGATA,0.331
2,CTTCGACG,1.03
3,CGCCGAAA,0.89
4,CTACGTGG,0.594
5,TTCCGTGC,1.52
6,GCGCGGGT,0.854
7,TACCGTCC,1.49
8,AAGCGATC,1.05
9,GGGCGAAT,0.556
10,ACACGTCC,2.46
11,GAACGAAA,0.751
12,TTTCGATG,0.37
13,ATTCGGGA,0.388
14,TTCCGTAT,1.21
15,TCACGTCC,1.98
16,GAGCGCGG,0.2
17,AAGCGAGT,0.688
18,TTTCGGGC,0.847
19,AAACGCGA,0.522
20,TAGCGCGT,0.44
21,TTTCGAGC,1.36
22,ATCCGCTC,2.37
23,CTACGTGT,1.07
24,CATCGGCA,0.688
25,CAACGAAG,0.407

row,Sequence,relative CpG methylation activity
1,TTCCGTAG,1.16
2,GAGCGCCT,1.95
3,GAACGTCA,1.21
4,ACACGTGT,0.793
5,TTACGTGA,1.35
6,GGGCGCAC,0.992
7,GCGCGTTA,0.739
8,TCGCGGGG,0.455
9,CAGCGATG,0.355
10,GCACGTAG,1.1
11,CCCCGCTC,2.05
12,CCACGGAC,1.87
13,ACGCGGGC,0.651
14,GACCGTAC,0.889
15,AGTCGCTA,0.625
16,TGCCGAAC,1.18
17,GCTCGTGT,0.455
18,TGTCGGCG,0.274
19,ACCCGGAC,1.26
20,TCGCGCAT,0.694
21,ACCCGTAA,1.35
22,GTACGTAC,1.62
23,CGTCGGCC,1.19
24,TGTCGTGA,0.426
25,AACCGTGA,0.361

row,Sequence,relative CpG methylation activity
1,TCACGTTT,0.84
2,ATACGGTT,1.52
3,CAGCGGAG,0.181
4,GACCGGAC,1.12
5,CAGCGCAT,0.685
6,GACCGACC,1.32
7,GTTCGTGA,0.867
8,ACCCGACT,1.63
9,TCACGTTC,1.59
10,GTGCGCTG,1.96
11,CCGCGCAT,0.849
12,CTGCGCGC,1.65
13,AGTCGAGT,0.202
14,TAACGATT,0.7
15,TATCGGAC,0.455
16,ATGCGGAC,1.15
17,CATCGGCG,0.7
18,CGTCGGTT,0.338
19,TCTCGCAG,0.474
20,GCTCGGAA,0.694
21,GCGCGAAA,1.33
22,GGTCGCCG,1.12
23,TCTCGCCC,1.75
24,TAACGTCC,1.6
25,ATCCGCCC,2.96

row,Sequence,relative CpG methylation activity
1,ACACGCAC,1.72
2,ATGCGGAG,0.64
3,AGACGTAC,0.913
4,CGCCGTGC,0.381
5,GCTCGCGA,0.766
6,TCGCGTGA,0.318
7,GAACGGGT,0.55
8,CATCGCCA,1.26
9,GTGCGGAC,1.42
10,GTTCGTGG,0.122
11,TGGCGTTG,0.385
12,AGGCGTGA,0.18
13,TGGCGTAA,0.472
14,TAACGGCT,0.878
15,CTCCGGCC,2.01
16,AACCGATC,1.34
17,ACACGGAC,1.51
18,GACCGGTC,1.01
19,TTTCGCAT,1.15
20,GACCGGGT,0.652
21,CACCGAAC,1.18
22,CCCCGTTC,1.46
23,AACCGTAC,0.749
24,GGCCGGTC,0.797
25,GGGCGGGA,0.476

row,Sequence,relative CpG methylation activity
1,GCACGACG,0.957
2,GGGCGCAT,1.04
3,TCCCGTGG,0.213
4,AACCGGCA,0.893
5,GAGCGTTT,0.114
6,CGGCGCGG,0.0694
7,CGCCGTCA,1.44
8,GAGCGCGA,0.709
9,TGACGGTG,0.444
10,GGCCGGCT,0.794
11,CCGCGCCC,2
12,TCCCGTCC,1.69
13,ATCCGTTT,1.21
14,CAGCGAGT,0.222
15,TGCCGAAT,0.723
16,CCTCGGTA,0.971
17,ATACGTGA,1.2
18,GGGCGTAG,0.488
19,GCGCGTAA,1.15
20,TGTCGGAG,0.025
21,GTCCGGAG,0.714
22,GAACGAGC,1.12
23,GCACGCTC,1.98
24,CCTCGTGG,0.455
25,GGCCGCGG,0.347

row,Sequence,relative CpG methylation activity
1,ATACGCAA,1.73
2,TGGCGCGT,0.455
3,ACCCGAGT,1.17
4,GTGCGGCG,1.52
5,CCGCGTTG,0.667
6,ACTCGGGC,0.99
7,CCACGTAT,1.19
8,TCGCGCCA,1.52
9,TCACGGAG,0.781
10,TGGCGTTT,0.246
11,CGTCGGCG,0.658
12,TTACGACA,2.29
13,AGTCGATC,0.609
14,TCCCGGGC,0.909
15,TCGCGAGG,0.431
16,TTCCGAGA,1.52
17,TCCCGACA,1.52
18,CTTCGTGC,0.758
19,CAACGGAC,0.974
